Source: the supplement of paper PMC10126150
Values marked as one replicate rest on one cluster of the flow cell; about a third of the high ones do not repeat.

Test system: ATP
Assay: switch fluorescence ratio, 500 uM ATP over buffer (Cy3 cluster intensity, sum of 5 cycles each) (fold (ratio)); higher = stronger signal-on switching upon ATP binding; sequences stand for … in TCGTCGGCAGCGTCAGATGTGTATAAGAGACAGTTTTTTTTTTTTTTTTTTTTTTTTT…TC
Details: aptamer strand: ATP DNA aptamer (quencher-CACCTGGGGGAGTATTGCGGAGGAAGG + anchor), 100 nM annealed; ATP concentration: 500 uM; one replicate
Procedure, shortened: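 The fluorescence ratio divides summed target-cycle Cy3 intensity by summed buffer-cycle Cy3 intensity for each cluster and is averaged per switch-domain sequence. Cy3-labelled switching-strand clusters on a modified Illumina MiSeq flow-cell were annealed to 100 nM quencher-labelled ATP aptamer, then imaged in selection buffer and again after 15 min with 500 uM ATP at 22 °C. Five such cycles were run, with NaOH stripping and re-annealing between them, and clusters outside 100-1000 RFU were excluded.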
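Also: ATP exposure 15 min at 22 °C before imaging.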

Row | Sequence | switch fluorescence ratio
1 | GTACATGGGT | 1
2 | GGCGAATGA | 1
3 | TTTGCCTGTG | 1.02
4 | AAGGTGATTT | 1.06
5 | TACAATATAG | 1.06
6 | AAATGGGCT | 1.04
7 | GGACTAGGGC | 1.03
8 | GTGAACGGGT | 1.02
9 | ATCCTTCT | 1.15
10 | ACGGAATGGC | 1.26
11 | GGCGTCAGAT | 1.02
12 | GAGACACCAG | 1.07
13 | CGAGATACCG | 0.992
14 | GGGGCCCCC | 0.987
15 | TCTAATTCTA | 0.98
16 | GACCCAAGAG | 1.01
17 | TTAAGCATCA | 1.09
18 | CATTCTTGGG | 0.986
19 | CGCGCAGTT | 1.05
20 | TTTGATTTCA | 1.01
21 | ATGGGAGGTA | 1.01
22 | AGTGATCACT | 1.03
23 | GGTATTCAGT | 0.997
24 | GGAGGGGCGC | 1.05
25 | GCTCTGAACG | 1.02
26 | TGTTTTGTTA | 0.992

Row | Sequence | switch fluorescence ratio
27 | TGGAGGGCGC | 0.959
28 | GCTTTTCCTG | 0.993
29 | GTGAACCAGG | 1.28
30 | GTTAGACAGC | 1.01
31 | CATCCCGGCA | 1.23
32 | GAGTGTTTTT | 1.01
33 | GGATGGGGG | 1
34 | TTCAATAGAT | 0.933
35 | TCAAGGAGGC | 0.891
36 | GATTTAGAGA | 1.01
37 | CCTTGGGCGG | 1.12
38 | TATTATTGAG | 0.961
39 | CAGTTTATGG | 0.998
40 | AATGCGACTT | 1
41 | TCTGTTTCGG | 0.95
42 | GCCCCCCAGT | 3.64
43 | GGAAGACGTT | 1.02
44 | GCGAAGAGAG | 1.01
45 | GTGTCCGGCA | 1.06
46 | AGTGCCACTA | 1.05
47 | ACAATCGGGC | 1.01
48 | TACACTTTA | 1.06
49 | TGGGTTCAAC | 1.02
50 | GTTCGGGGGC | 1.02
51 | CCTCATGGGC | 3.63
52 | AGGATAGTAG | 0.985

Row | Sequence | switch fluorescence ratio
53 | CGCAGCTGCC | 0.996
54 | CGGGCGCAAG | 1.05
55 | CGCGGGACAT | 1.03
56 | GCGGCTGC | 1
57 | TGCGGCGGGA | 0.966
58 | GTATGTTTAT | 0.997
59 | AGAACATCGA | 0.975
60 | TTGGAGTAGG | 0.998
61 | TGCATACACG | 1.21
62 | TTCGATTACC | 0.967
63 | AGGGACGTA | 1
64 | CCGATATAGT | 1.39
65 | CGGGGCGTA | 1.04
66 | AGATCAGCT | 0.992
67 | TACCGGATGT | 1.03
68 | GCGCGTCGGT | 1
69 | TAATGCCCCG | 0.974
70 | AACGGAATTT | 1.1
71 | CACCAGGC | 1.18
72 | TACTCATGAG | 0.933
73 | CGGTATGCTA | 0.975
74 | TATGTTAGT | 0.966
75 | ACCCGCCGAC | 3.43
76 | AGTTAGTTAC | 1.02
77 | TAAAACAGCT | 1.06
78 | ATAGCTCTGT | 0.971

Row | Sequence | switch fluorescence ratio
79 | GACCGAGAGA | 0.997
80 | CAAAAGATTT | 0.964
81 | TTCGGTTGAA | 1.02
82 | TTTATGGCTC | 1.03
83 | ATAGGGGACT | 1.01
84 | ACGACATGAC | 1.49
85 | CTAGATGGT | 0.924
86 | GAGGAGTTGG | 0.942
87 | TGGATGTGGT | 1.02
88 | TGAAGGTTCG | 1
89 | GGAAGTCAGT | 1.02
90 | AAGGTATGAC | 1.02
91 | TGACCCCCTC | 1.36
92 | GCTCCACTTA | 1.2
93 | CGGCAGGCCG | 1.04
94 | GTGCAGGGTG | 1.22
95 | CAAATCATAC | 1.06
96 | GTTGCGTCG | 0.987
97 | CGGTAGATCA | 0.954
98 | CCTGTGCAG | 2.45
99 | TATATTTAGA | 0.984
100 | ATCCACCTTT | 1.1
101 | GAGCTCCGGG | 1.04
102 | GATTCTCTCT | 1.03
103 | AAGGGTCAAT | 1.06
104 | AACGCGGGCT | 1.04

Row | Sequence | switch fluorescence ratio
105 | ACTGGGCATT | 1.19
106 | TGTAAATAAA | 0.994
107 | CGAGCCCAAC | 1.07
108 | CAAGGAATAT | 1.01
109 | GGTCAGTGGA | 0.961
110 | CGTGTAATCT | 0.999
111 | GGGAATAAAT | 1.01
112 | TTGAAAGTGC | 1.01
113 | TAGATGAATG | 0.972
114 | GAAGAAAAAT | 1
115 | CATATTCATT | 0.999
116 | GCGCTGGAGC | 0.985
117 | TTGGCCGACG | 1.05
118 | ACATGAGGCA | 1.01
119 | GTTTAGGTCG | 1.01
120 | ACGTTACATG | 1.43
121 | TTGATAGGGC | 1.01
122 | AAGAAGGCAA | 1.09
123 | TGAGGATGCA | 0.968
124 | CTGGAAGCGC | 1.02
125 | TGTAACGAGT | 0.998
126 | GTTTACCCTT | 1.29
127 | ATCTTTTGTT | 1.02
128 | CGGGCGGCA | 1.03
129 | AGGGGTCTTC | 0.993
130 | ACAAGGTTCA | 1.02

Row | Sequence | switch fluorescence ratio
131 | CAATTCTAGA | 0.947
132 | TTGCTTTAGT | 1.02
133 | GTTTTTACAG | 0.973
134 | TCGTGAATGC | 1.94
135 | CAATTCTTCA | 1.04
136 | TATTCACCCG | 1.05
137 | TCAATGCGTA | 1.29
138 | TGCTGTAGTC | 1.01
139 | AGTTACCGTA | 1.06
140 | GACGCAGACA | 1.38
141 | CGTCGGCAA | 2.38
142 | CTACACTACT | 1.38
143 | TAAAGAAAAC | 0.937
144 | GCAAAAACCC | 1.03
145 | GTGAGAACGC | 0.968
146 | TACGAGACGT | 1.15
147 | AGATTTTAAA | 0.954
148 | TATTTCGCTT | 1.06
149 | GATGTTTAGG | 0.967
150 | CCAAGTCAGG | 1.05
151 | TAGAAGCACG | 1.06
152 | TTCCCAGCTA | 2.83
153 | GTTCATAATC | 1.01
154 | GGGTAAGCGA | 0.992
155 | GTGATCGTGG | 1.01
156 | CTTGTTTATC | 0.973

Row | Sequence | switch fluorescence ratio
157 | CCAGCTCGAC | 1.38
158 | TGCTGAGCGA | 1.07
159 | CCATAATGTA | 0.971
160 | TCCGGTGAGT | 1.07
161 | TAGGAGACT | 1.02
162 | TTCCGTTAGG | 0.989
163 | GTTGAAAATG | 1
164 | AGGTAGAAG | 1
165 | CATCTGGCGA | 1.88
166 | ACGATCCTAG | 1.02
167 | TGGTGGACCG | 1
168 | GTTTTACTTA | 1.04
169 | TGGCGGCTGC | 1.01
170 | TTGATACCTT | 1.17
171 | CCTGATTAGG | 0.988
172 | ATGGAATATC | 1.08
173 | GCACGGGGTA | 1.34
174 | TATGTCTTCT | 0.979
175 | TACAACTATG | 0.995
176 | TCTAACACAA | 1.13
177 | TTATGTCGCT | 0.957
178 | ACTAAAGGGT | 1.05
179 | GCTAGAAAGT | 0.974
180 | ACACTAACAG | 1.07
181 | TGGTCGCGCG | 1.01
182 | ATCTGGCGAT | 1.06

Row | Sequence | switch fluorescence ratio
183 | GCGGAAACAC | 1.09
184 | TCAAGTTCAC | 0.984
185 | TACAGTATG | 0.981
186 | AGTCGTCA | 1
187 | TATGCCGATT | 0.995
188 | TTGAGGGATT | 1.04
189 | TAAACGTGAA | 1.07
190 | AACAAAAGT | 1.03
191 | AGGTTTTCAC | 0.999
192 | GTAGTAGGCG | 0.97
193 | TTAGATGCA | 0.96
194 | GTTGTGGCCT | 1.03
195 | ATGCAAGTAT | 0.962
196 | GACCTCTCTG | 1.04
197 | ACTATGCTCT | 0.993
198 | GGTTGGAGCG | 1.01
199 | TTTAAGCAGC | 0.958
200 | CACCCTTAAA | 1.03
201 | TATAGCAGAA | 0.997
